# Many of the other results were omitted from the sample, so the strongest signals are more common in it than they were.
# Tested on: Gal(b1-3)GalNAc(b1-4)[Neu5Ac(a2-3)]Gal(b1-4)Glc
# Assay: glycan array binding signal (z-score within array); higher = stronger binding
# Conditions: glycan notation: IUPAC condensed, linker removed
# Outline: (§1)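 Arrays were curated from the Consortium for Functional Glycomics database, 3228 in total, and kept only where the protein sequence was available. Binding is expressed as a within-array Z-score. This score was averaged across arrays of the same protein sequence at different concentrations or buffers and across linkers, and negative values can be read as non-binding.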
row,Substance,glycan array binding signal (z-score)
1,Gal 3 (Homo sapiens) (chain not printed),-0.193
2,FGF2 (chain not printed),-0.77
3,M-Ficolin A256V (Homo sapiens) (chain not printed),7.32
4,M-Ficolin Y271F (Homo sapiens) (chain not printed),5.97
5,M-Ficolin G221F (Homo sapiens) (chain not printed),5.8
6,STIM-3 (Mus musculus) (chain not printed),-0.134
7,M-Ficolin G221F A256V (Homo sapiens) (chain not printed),4.89
8,M-Ficolin (Homo sapiens) (chain not printed),3.41

# Tested on: Gal(b1-3)GlcNAc(b1-2)Man(a1-3)[Gal(b1-3)GlcNAc(b1-2)Man(a1-6)]Man(b1-4)GlcNAc(b1-4)[Fuc(a1-6)]GlcNAc
# Assay: as above
# Conditions: glycan notation: IUPAC condensed, linker removed
# Outline: as §1
row,Substance,glycan array binding signal (z-score)
1,FGF2 (chain not printed),0.348
2,NCAM1 (Homo sapiens) (chain not printed),-0.364
3,M-Ficolin (Homo sapiens) (chain not printed),-0.141

# Reference: the supplement of paper PMC8728848
